Assay results as given in the supplement of paper PMC11417369.
± gives the standard deviation of the averaged measurements. The list shows a part of the results.

System: PfAP2-LT AP2 domain (GST-tagged)
Assay: gcPBM binding intensity (ln(normalized median fluorescence intensity)); higher = stronger DNA binding
Method in brief: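 Using an Agilent 4 × 180k array, primer-extended double-stranded 36-bp intergenic genomic probes and negative controls were exposed for 1 h to GST-fused P. falciparum DNA-binding domains expressed in E. coli. Binding was carried out in 1× PBS with 1% milk, 0.2 mg/ml BSA, 0.5% salmon testes DNA and 0.03% Triton X-100, and protein was detected with Alexa488 anti-GST antibody and a 488 nm scan. Binding intensity is the highest Masliner-normalised natural-log median intensity across replicate spots of either probe orientation.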

Row | Sequence | gcPBM binding intensity (ln)
1 | AATTTTAATTATATCACACATAATATATACCAAAAA [CACACA_site6011] | 8.54 ± 0.38
2 | AAAAAAAAAAGACACACACACACACGGAGATATATA [CACACA_site6216] | 10.4 ± 0.19
3 | TTTAATACTTTTTTCTGTACACACTTGATTTACTAT [XGTACX_site5925] | 9.11 ± 0.39
4 | TACATATTTTTATATACACACAATAATTACTATAAA [CACACA_site6879] | 8.64 ± 0.38
5 | CAAAATATAAAAACATGTACATAAATATTAACGAAT [XGTACX_site2380] | 9.12 ± 0.36
6 | TCATCCACATATTGTAGTACAAGATAATTGTTTATT [XGTACX_site1634] | 8.76 ± 0.42
7 | ATATGTTTATTAAATGCATGTCAAGACTTAAGATAT [TGCATGCA_site329] | 8.79 ± 0.42
8 | AAAAATACAATTTTCTTGCACTTTGTTGCATTGTAA | 8.88 ± 0.45
9 | AACATATACACGAACACACACACATATAAATAAATA [CACACA_site6380] | 9.87 ± 0.23
10 | CAAAAAATGAAACACACACACACACCCATAAATAAA [CACACA_site1231] | 10.12 ± 0.035
11 | TCATATATAAAAAGGGTGCTTTTAAAAGAATGGATT | 8.7 ± 0.51
12 | AATATTTTTTGTTTTACACACATATATAGATATATA [CACACA_site7662] | 9.01 ± 0.28
13 | CAGATATTTGTTCATATACACACTTTTGATAAAATA [CACACA_site1219] | 8.76 ± 0.38
14 | TTTTTTGGGTAAAATTATAAAATATGTATATATAAA [CACACA_negctrl_site27] | 8.07 ± 0.48
15 | TTTTTTTTTGTATTTTCACACATTTTTTTTTTTTTT [CACACA_site5407] | 8.79 ± 0.67
16 | TTATTTAAACAAATCACACACAAATATATATACATA [CACACA_site2019] | 9.05 ± 0.33
17 | ATATGCATAAAAAGAGGTACACATAAAATATATATA [XGTACX_site5864] | 9.06 ± 0.53
18 | TATACACATATATAAAGTACATATATGTGTAAAAAA [XGTACX_site8582] | 8.99 ± 0.44
19 | TCTTCCGCTTTATGGAGTACTATGGTAGCCTTTCCT [XGTACX_site2958] | 8.71 ± 0.54

Row | Sequence | gcPBM binding intensity (ln)
20 | GACCTACAAAAAGGCACACATATACGCATACATACA [CACACA_site2179] | 9.14 ± 0.4
21 | CATATTTTCAAAATTAGTACATAAAAAAAAAAATAT [XGTACX_site3101] | 8.62 ± 0.42
22 | TATAATCATATATACACACACATATATATATATATA [CACACA_site2168] | 9.805 ± 0.05
23 | TAAATTTGTGTTATTAAAAAAATGGTTTAAAAATGT [XGTACX_negctrl_site352] | 8.38 ± 0.42
24 | TCTTTTTCATCTTTCAACAAAAAATAATATATGTGT [CACACA_negctrl_site866] | 8.66 ± 0.55
25 | TTAGTCCATATTTTTGCACACCATTTTTTTTTTTTT [CACACA_site3927] | 9.15 ± 0.56
26 | AGAATAAATATGCACACATGCATATATTTTTACACT [TGCATGCA_site893] | 9.01 ± 0.32
27 | ATCCTTAATATGAACACACAAATATATTGCACATAT [CACACA_site6230] | 9.18 ± 0.39
28 | ATATATTTATATTGTACACACATTTATGCATATATA [CACACA_site7502] | 9.21 ± 0.35
29 | AAATATACAATATTCACACAAAAAAATACATTACAA [CACACA_site5004] | 8.92 ± 0.48
30 | TTTCTTACAAAAGCTAGAGTTTTTTTTTTTTTTTTT [XGTACX_negctrl_site341] | 8.4 ± 0.14
31 | TGTTTTTATAAAATAAATAAATATATATATATATAT [CACACA_negctrl_site502] | 8.71 ± 0.33
32 | ATAAACAAACATAAATCTGATTTTAATTTTTTTAAG [CACACA_negctrl_site313] | 8.26 ± 0.48
33 | TTTATTATTTTAACGTGTACAAGGTATATAATATTC [XGTACX_site5241] | 8.68 ± 0.42
34 | TAGGTAAATGCAAATTGGTTTAAATCAAAATATAAA [XGTACX_negctrl_site250] | 8.62 ± 0.47
35 | GTATCAAAAGAATACACACACACATACAGATATATA [CACACA_site5975] | 9.86 ± 0.18
36 | TGATATTATATATATACACACATGTATGTATTTATA [CACACA_site4874] | 9.01 ± 0.33
37 | AAAAATAAAAAATATAAAAATATAAAAATATAAAAA [XGTACX_negctrl_site51] | 8.57 ± 0.67
38 | TTATATTTTCTCCGCGTGCACATATGTATACTATAC | 9.2 ± 0.34

Row | Sequence | gcPBM binding intensity (ln)
39 | TAGGGTAGTTATAATTGTACTTTTCTCCAAAAAAAA [XGTACX_site7321] | 8.31 ± 0.5
40 | TTTTTGTTTTTTTGTTTATCGTTCGTGACTACATGA [TGCATGCA_negctrl_site124] | 8.75 ± 0.62
41 | GAAATCTAAATAGAAACACACATATATATATATATA [CACACA_site3863] | 9.715 ± 0.035
42 | AAAAGAAATAAGGATACACACTATTGATAAAAGTAG [CACACA_site4309] | 8.96 ± 0.52
43 | TATATTATCAAAATGGTGCAATAATTTCTATATTAT [GTGCAC_site9772] | 8.46 ± 0.47
44 | TCGTGGGAAAATATTACACACATTTACTATAGTATC [CACACA_site5836] | 9.14 ± 0.35
45 | TATTACAAATAATACCGTACACAAATGTTTTTTTAT [XGTACX_site7977] | 8.63 ± 0.35
46 | CTTGGGAAGTATTCAGTGCAAAATATAAGCAGGTCA [GTGCAC_site9758] | 8.94 ± 0.63
47 | TGGATAATCAAAAATTGTACAAGTGTTGTTATTGGT [XGTACX_site8010] | 8.81 ± 0.4
48 | ACCGGTGGAACGTTTTGTACATATATAATAATATAT [XGTACX_site2143] | 8.92 ± 0.4
49 | ATATATATATTGAAAAGTACATATATATATATATTA [XGTACX_site1560] | 8.72 ± 0.31
50 | TACATAAATACATACATACACACATATATATATATA [CACACA_site2105] | 9.77 ± 0.24
51 | TTTTTTTTTATATATACACACAATAAATAAATATAA [CACACA_site2954] | 8.32 ± 0.44
52 | GGTTAAAAAAAGCATACACACTATCCTCTTTGCTCT [CACACA_site7246] | 9.07 ± 0.44
53 | CTTTTTTATTTTTCAACACACATAATAAATTTCTAT [CACACA_site1037] | 8.78 ± 0.49
54 | GAACCTTTAAAATACACACCCAAATCCTTTGAAATA [CACACA_site3630] | 8.88 ± 0.42
55 | ATATTTTACAAATGCACACATAATTTTTTTTTTTTT [CACACA_site2763] | 8.8 ± 0.46
56 | TAAATAAAATACAAATGTACATAAATAATAAATATA [XGTACX_site1813] | 8.87 ± 0.45
57 | ATATAAAAAATATAAGGTACACATATATGTAGATAT [XGTACX_site6792] | 9.24 ± 0.41
